Data published in the supplement of paper PMC4967469.
pIC50: −log10 of the molar value. A lower IC50 marks a more sensitive line; a fit beyond the top or the lowest dose is shown as a bound at that dose. The AUC spans the tested range (256-fold, ending at the top dose) of the same fit; it is 1 without any effect and falls as sensitivity rises. Any top dose called inferred was derived from the fitted curves, not read from the paper.

Assays:
Assay in all cases: Viability of human cancer cell lines after 72 h of drug (GDSC screen)
[1] = compound: C=CC(=O)N1CCc2ccc(-n3c(=O)ccc4cnc5ccc(-c6cnn(C)c6)cc5c43)cc21 [QL-XII-47]; conditions: top dose 10.24 µM; top dose inferred
Experimental: (§1)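 Human cancer cell lines in 384-well plates, medium with 10% serum, drug for 72 h over a 256-fold dose range (nine 2-fold or five 4-fold steps up to the top dose). Adherent lines were fixed and stained with the nucleic acid dye Syto60, suspension lines read with resazurin; signal relative to control wells, capped at 0 and 100%. One two-parameter sigmoid per drug and line, fitted in a mixed model over all curves with the slope shared within a line.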

[2] = compound: CCN1CCC(n2cc(CNc3cc(Cl)c4ncc(C#N)c(Nc5ccc(F)c(Cl)c5)c4c3)nn2)CC1 [KIN001-266]; conditions: top dose 20 µM; top dose inferred
Experimental: as §1

[3] = compound: COc1ccc(-c2cc3nccn3c(Nc3ncccc3C(N)=O)n2)cc1OC [BAY 61-3606]; conditions: top dose 8 µM; top dose inferred
Experimental: as §1

[4] = compound: O=C1/C(=C/c2cccs2)CC/C1=C\c1cccs1 [CCT007093]; conditions: top dose 6.6 µM; top dose inferred
Experimental: as §1

Cell Line	AUC [1]	pIC50 [1]	AUC [2]	pIC50 [2]	AUC [3]	pIC50 [3]	AUC [4]	pIC50 [4]
MKN28 (stomach, adherent)	0.762	5.43	0.85	4.80	0.805	5.38	0.958	< 5.18
MKN45 (stomach, adherent)	0.811	5.14	0.954	< 4.70	0.921	< 5.10	0.977	< 5.18
ML-1 (thyroid, adherent)	0.712	5.55	0.926	< 4.70	0.821	5.24	0.978	< 5.18
ML-2 (acute myeloid leukaemia, suspension)	0.466	6.28	0.92	< 4.70	0.893	5.11	0.979	< 5.18
MLMA (hairy cell leukaemia, semi-adherent)	0.748	5.48	0.874	4.71	0.64	5.91	0.98	< 5.18
MN-60 (B-cell leukaemia, suspension)	0.707	5.60	0.907	< 4.70	0.881	< 5.10	0.988	< 5.18
MOG-G-CCM (glioma, adherent)	0.81	5.18	0.811	4.89	0.894	< 5.10	0.983	< 5.18
MOG-G-UVW (glioma, adherent)	0.645	5.80	0.973	< 4.70	0.858	5.20	0.97	< 5.18
MOLM-13 (acute myeloid leukaemia, suspension)	0.459	6.30	0.865	4.80	0.279	6.91	0.979	< 5.18
MOLP-8 (myeloma, suspension)	0.329	6.66	0.822	4.95	0.593	6.05	0.978	< 5.18
MOLT-4 (lymphoblastic leukaemia, suspension)	0.545	6.08	0.891	4.80	0.873	5.27	0.978	< 5.18
MONO-MAC-6 (acute myeloid leukaemia, suspension)	0.577	5.98	0.861	4.73	0.617	5.97	0.981	< 5.18
MPP-89 (mesothelioma, adherent)	0.853	< 4.99	0.916	< 4.70	0.675	5.74	0.967	< 5.18
MRK-nu-1 (breast, suspension)	0.964	< 4.99	0.83	4.95	0.776	5.53	0.989	< 5.18
MS751 (cervix, adherent)	0.847	5.18	0.984	< 4.70	0.907	< 5.10	0.99	< 5.18
MS-1 (small cell lung carcinoma, suspension)	0.662	5.77	0.882	4.76	0.852	5.28	0.99	< 5.18
MSTO-211H (mesothelioma, adherent)	0.988	< 4.99	0.991	< 4.70	0.991	< 5.10	0.991	< 5.18
MV-4-11 (leukaemia, suspension)	0.313	6.67	0.876	4.86	0.151	7.25	0.974	< 5.18
MY-M12 (leukaemia, suspension)	0.509	6.17	0.854	4.72	0.801	5.35	0.964	< 5.18
MZ1-PC (pancreas, adherent)	0.61	5.86	0.819	4.82	0.77	5.42	0.975	< 5.18

Cell Line	AUC [1]	pIC50 [1]	AUC [2]	pIC50 [2]	AUC [3]	pIC50 [3]	AUC [4]	pIC50 [4]
MZ2-MEL (melanoma, adherent)	0.551	6.04	0.883	< 4.70	0.698	5.70	0.976	< 5.18
MZ7-mel (melanoma, adherent)	0.828	5.18	0.872	< 4.70	0.958	< 5.10	0.985	< 5.18
Mewo (melanoma, adherent)	0.984	< 4.99	0.948	< 4.70	0.965	< 5.10	0.969	< 5.18
Mo-T (hairy cell leukaemia, suspension)	0.53	6.11	0.885	< 4.70	0.852	5.19	0.987	< 5.18
NALM-6 (B-cell leukaemia, suspension)	0.309	6.68	0.819	5.04	0.476	6.36	0.972	< 5.18
NAMALWA (Burkitt lymphoma, suspension)	0.516	6.15	0.888	4.79	0.88	5.22	0.991	< 5.18
NB5 (neuroblastoma, adherent)	0.748	5.48	0.81	4.97	0.925	< 5.10	0.971	< 5.18
NB6 (neuroblastoma, adherent)	0.639	5.77	0.817	4.84	0.86	< 5.10	0.974	< 5.18
NB7 (neuroblastoma, adherent)	0.714	5.57	0.855	4.77	0.669	5.82	0.956	< 5.18
NB10 (neuroblastoma, adherent)	0.899	< 4.99	0.856	4.81	0.827	5.32	0.986	< 5.18
NB12 (neuroblastoma, adherent)	0.652	5.71	0.91	< 4.70	0.956	< 5.10	0.834	5.18
NB14 (neuroblastoma, adherent)	0.785	5.39	0.782	5.11	0.666	5.85	0.982	< 5.18
NB69 (neuroblastoma, adherent)	0.488	6.23	0.877	4.79	0.918	< 5.10	0.952	< 5.18
NB(TU)1-10 (neuroblastoma, adherent)	0.992	< 4.99	0.861	4.87	0.674	5.85	0.968	< 5.18
NB-4 (acute myeloid leukaemia, suspension)	0.612	5.91	0.761	5.23	0.796	5.52	0.984	< 5.18
NCI-H23 (lung adenocarcinoma, adherent)	0.792	5.34	0.955	< 4.70	0.963	< 5.10	0.984	< 5.18
NCI-H28 (mesothelioma, adherent)	0.935	< 4.99	0.927	< 4.70	0.802	5.26	0.916	< 5.18
NCI-H64 (small cell lung carcinoma, suspension)	0.778	5.51	0.906	4.84	0.761	5.66	0.99	< 5.18
NCI-H69 (small cell lung carcinoma, suspension)	0.755	5.42	0.985	< 4.70	0.88	< 5.10	0.985	< 5.18
NCI-H82 (small cell lung carcinoma, suspension)	0.971	< 4.99	0.89	< 4.70	0.927	< 5.10	0.988	< 5.18

Cell Line	AUC [1]	pIC50 [1]	AUC [2]	pIC50 [2]	AUC [3]	pIC50 [3]	AUC [4]	pIC50 [4]
NCI-H187 (small cell lung carcinoma, suspension)	0.758	5.42	0.89	< 4.70	0.976	< 5.10	0.988	< 5.18
NCI-H196 (small cell lung carcinoma, adherent)	0.764	5.41	0.979	< 4.70	0.942	< 5.10	0.984	< 5.18
NCI-H209 (small cell lung carcinoma, suspension)	0.813	5.22	0.919	< 4.70	0.858	5.13	0.983	< 5.18
NCI-H211 (small cell lung carcinoma, adherent)	0.735	5.53	0.797	5.04	0.89	< 5.10	0.987	< 5.18
NCI-H226 (lung squamous cell carcinoma, adherent)	0.852	5.07	0.874	< 4.70	0.806	5.37	0.977	< 5.18
NCI-H292 (lung adenocarcinoma, adherent)	0.878	< 4.99	0.745	5.13	0.898	< 5.10	0.876	< 5.18
NCI-H322M (lung adenocarcinoma, suspension)	0.825	5.09	0.864	< 4.70	0.985	< 5.10	0.967	< 5.18
NCI-H345 (small cell lung carcinoma, suspension)	0.972	< 4.99	0.988	< 4.70	0.983	< 5.10	0.99	< 5.18
NCI-H358 (lung adenocarcinoma, adherent)	0.599	5.91	0.826	4.85	0.571	6.10	0.984	< 5.18
NCI-H441 (lung adenocarcinoma, adherent)	0.973	< 4.99	0.965	< 4.70	0.81	5.19	0.981	< 5.18
NCI-H446 (small cell lung carcinoma, semi-adherent)	0.681	5.67	0.855	4.75	0.847	5.19	0.985	< 5.18
NCI-H460 (large cell lung carcinoma, adherent)	0.988	< 4.99	0.885	4.74	0.719	5.71	0.949	< 5.18
NCI-H510A (small cell lung carcinoma, semi-adherent)	0.982	< 4.99	0.861	4.83	0.933	< 5.10	0.989	< 5.18
NCI-H520 (lung squamous cell carcinoma, adherent)	0.656	5.75	0.669	5.43	0.879	< 5.10	0.975	< 5.18
NCI-H522 (lung adenocarcinoma, adherent)	0.82	5.14	0.862	< 4.70	0.875	< 5.10	0.909	< 5.18
NCI-H524 (small cell lung carcinoma, suspension)	0.497	6.20	0.986	< 4.70	0.958	< 5.10	0.988	< 5.18
NCI-H526 (small cell lung carcinoma, suspension)	0.983	< 4.99	0.944	< 4.70	0.815	5.38	0.989	< 5.18
NCI-H596 (lung adenocarcinoma, adherent)	0.689	5.59	0.877	< 4.70	0.919	< 5.10	0.96	< 5.18
